Source: PMC11004410, “Apolipoprotein A1 and high-density lipoprotein limit low-density lipoprotein transcytosis by binding SR-B1” (Journal of Lipid Research, 2024)

How the values were obtained:
[1] = biological target: T1, GFP-SR-B1 (fusion protein) (UniProt Q8WTV0 1-552); assay: cell-based or functional assay
T1 sequence (looked up): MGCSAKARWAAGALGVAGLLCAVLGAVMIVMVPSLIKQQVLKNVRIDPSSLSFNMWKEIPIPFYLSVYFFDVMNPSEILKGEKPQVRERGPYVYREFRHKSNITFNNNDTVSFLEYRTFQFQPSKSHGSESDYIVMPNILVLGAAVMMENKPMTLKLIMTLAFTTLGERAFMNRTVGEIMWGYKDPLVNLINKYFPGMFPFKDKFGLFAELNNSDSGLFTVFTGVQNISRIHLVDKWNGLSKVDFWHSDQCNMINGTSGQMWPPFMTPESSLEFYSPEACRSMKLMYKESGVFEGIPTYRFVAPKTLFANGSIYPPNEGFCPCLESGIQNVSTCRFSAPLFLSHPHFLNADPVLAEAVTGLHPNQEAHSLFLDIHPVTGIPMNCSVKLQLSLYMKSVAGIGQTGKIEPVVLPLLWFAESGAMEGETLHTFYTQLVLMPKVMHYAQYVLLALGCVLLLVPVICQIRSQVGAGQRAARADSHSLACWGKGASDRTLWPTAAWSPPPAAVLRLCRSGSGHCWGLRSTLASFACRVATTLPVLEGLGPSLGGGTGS

[2] = biological target: T2, His-tagged SR-B1 ectodomain (His6.hSR-B1 (amino acid 33-444)) (human, UniProt Q8WTV0 33-444, labeled with the Monolith His-Tag Labeling Kit Red-tris-NTA); assay: MST; Monolith NT.115; 50 nM His6.hSR-B1(33-444) labeled with Red-tris-NTA; APOA1 or APOA1-Milano from 1 nM to 8 μM; PBS with 0.05% Tween; room temperature; 40% LED power, high MST power; apparent Kd; details: both partners purified
T2 construct: scavenger receptor B1 (SR-B1), human, luminal domain / ectodomain, amino acids 33-444; Cloned into PB-T-PAF downstream of the protein A tag; also called His6.hSR-B1(amino acids 33-444); His6.hSR-B^(33-444); not shown: His6, N-terminal, kept
T2 sequence (looked up): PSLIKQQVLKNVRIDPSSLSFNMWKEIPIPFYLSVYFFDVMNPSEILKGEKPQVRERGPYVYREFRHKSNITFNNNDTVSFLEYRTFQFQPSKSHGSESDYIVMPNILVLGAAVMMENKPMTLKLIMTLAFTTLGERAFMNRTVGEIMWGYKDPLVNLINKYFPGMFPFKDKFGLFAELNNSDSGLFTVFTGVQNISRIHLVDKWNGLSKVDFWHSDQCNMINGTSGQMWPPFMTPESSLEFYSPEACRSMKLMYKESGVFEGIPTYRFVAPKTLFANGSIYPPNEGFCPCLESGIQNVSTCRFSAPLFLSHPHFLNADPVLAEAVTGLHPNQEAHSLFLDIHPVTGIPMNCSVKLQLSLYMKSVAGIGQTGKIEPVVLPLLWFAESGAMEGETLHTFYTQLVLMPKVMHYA

B1: recombinant APOA1-Milano, from ClearColi (natural protein)
chain: not shown
[1]
  reduction of DiI-LDL internalization in HCAECs by 20-fold excess (by protein mass) of unlabeled recombinant APOA1-Milano, against PBS; competition with LDL: 2.9 fold
  uptake of DiI-rHDL^Mil (APOA1-Milano in DMPC particles, 5 μg/ml, 1 h, 37°C) by HeLa cells expressing untagged SR-B1 + GFP, DiI fluorescence against cells expressing soluble GFP or GFP-Alk1: ~15 fold

B2: full-length APOA1-Milano, from 293F cells (protein A-APOA1-Milano) (natural protein)
chain: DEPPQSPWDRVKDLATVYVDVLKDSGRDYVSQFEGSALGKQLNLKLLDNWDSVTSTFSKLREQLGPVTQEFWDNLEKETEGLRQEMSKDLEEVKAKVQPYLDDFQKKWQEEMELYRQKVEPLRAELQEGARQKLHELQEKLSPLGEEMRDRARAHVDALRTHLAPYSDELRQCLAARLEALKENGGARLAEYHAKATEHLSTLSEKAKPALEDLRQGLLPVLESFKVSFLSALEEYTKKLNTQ
[2]
  Kd: 2060 nM
